Source: patent US20260248922A1, “TREATMENT OF SIGNS, SYMPTOMS AND/OR COMPLICATIONS OF VIRAL, BACTERIAL, PROTOZOAL, AND/OR FUNGAL INFECTIONS BY HIGH PENETRATION PRODRUGS” (priority 2022, published 2026)

Key:
H1N1 virus [1] = assay: H1N1 virus infection mouse model (Example 68); format: in vivo, mice; settings: for Animals died/total / Animals with lung lesion/total: transdermal once a day; for protection from death, lung damages and clinical signs of illness (conclusion in words): transdermal, low, middle and high doses
Procedure: A total of seventy mice (7 groups, 10/group) were used in this study. At day 0, mice were anesthetized with isoflurane and held in a dorsal recumbent position for administration of 0.1×TCID50/mouse virus (new batch) by internasal instillation, from day 2 post challenge, mice were received a single dose of different concentrations of test article or vehicle control once a day up to 15th day with dose initiation on day 2 post challenge. Group 1 served as an infected control group and was treated with vehicle (35% ethanol). 7% (pyrrolidin-2-yl)methyl 5-(2,4-difluorophenyl) salicylate hydrochloride in 35% ethanol (low dose: 25.0 mg/kg, group 2, mid dose: 49.9 mg/kg, group 3, and high dose: 99.8 mg/kg, group 4) and 7% (pyrrolidin-2-yl)methyl 5-(2,4-difluorophenyl) acetylsalicylate hydrochloride in 35% ethanol (low dose: 24.7 mg/kg, group 5, mid dose: 49.4 mg/kg, group 6, and high dose: 98.7 mg/kg, group 7) and vehicle (35% ethanol) were given by transdermal on the back of animal in an area of 2 cm×5 cm, 1.5 cm×3.5 cm, or 1 cm×2.5 cm for high, middle or low dose. Mice were observed following viral challenge for clinical signs of illness including body weights, health score, morbidity and mortality.
Lung lesions and peribronchiolitis of all deceased and surviving animals were characterized (Table 13).

H1N1 virus [2] = assay: H1N1 virus infection mouse model (Example 66); format: in vivo, mice; settings: for Animals died/total / Animals with lung lesion/total: transdermal once a day; for protection from death, lung damages and clinical signs of illness (conclusion in words): transdermal, low, middle and high dose
Procedure: A total of seventy mice (7 groups, 10/group) were used in this study. At day 0, mice were anesthetized with isoflurane and held in a dorsal recumbent position for administration of 0.1×TCID50/mouse virus (new batch) by internasal instillation, from day 2 post challenge, mice were received a single dose of different concentrations of test article or vehicle control once a day up to 15th day with dose initiation on day 2 post challenge. Group 1 served as an infected control group and was treated with vehicle (35% ethanol). […] Mice were observed following viral challenge for clinical signs of illness including body weights, health score, morbidity and mortality.
Lung lesions and peribronchiolitis of all deceased and surviving animals were characterized (Table 9).

[3] = test system: Methicillin-resistant S. aureus strain NRS71 (Sangar 252); format: in vivo, C57/BL6 mice; settings: for Animals died/total / survival: transdermal once a day
[4] = test system: cecal slurry-induced sepsis; assay: Cecal slurry-induced sepsis mouse model (Example 74); format: in vivo, C57/BL6 mice; settings: for Animals died/total / survival: transdermal once a day
H1N1 virus [5] = assay: H1N1 virus infection mouse model (Example 67); format: in vivo, mice; settings: for Animals died/total / Animals with lung lesion/total: transdermal once a day; for protection from death, lung damages and clinical signs of illness (conclusion in words): transdermal, low, middle and high doses
Procedure: A total of seventy mice (7 groups, 10/group) were used in this study. At day 0, mice were anesthetized with isoflurane and held in a dorsal recumbent position for administration of 0.1×TCID50/mouse virus (new batch) by internasal instillation, from day 2 post challenge, mice were received a single dose of different concentrations of test article or vehicle control once a day up to 15th day with dose initiation on day 2 post challenge. Group 1 served as an infected control group and was treated with vehicle (35% ethanol). 7% of (pyrrolidin-2-yl)methyl 2-[(2,3-dimethylphenyl)amino]benzoate hydrochloride in 35% ethanol (low dose: 25.0 mg/kg, group 2, mid dose: 50.1 mg/kg, group 3, and high dose: 100.1 mg/kg, group 4) and 7% of (pyrrolidin-2-yl)methyl α-methyl-4-(2-thienylcarbonyl)benzeneacetate hydrochloride in 35% ethanol (low dose: 24.9 mg/kg, group 5, mid dose: 49.8 mg/kg, group 6, and high dose: 99.6 mg/kg, group 7) and vehicle (35% ethanol) were given by transdermal on the back of animal in an area of 2 cm×5 cm, 1.5 cm×3.5 cm, or 1 cm×2.5 cm for high, middle or low dose. Mice were observed following viral challenge for clinical signs of illness including body weights, health score, morbidity and mortality.
Lung lesions and peribronchiolitis of all deceased and surviving animals were characterized (Table 11).

Cl.O=C(OCC1CCCN1)c1cc(-c2ccc(F)cc2F)ccc1O (centres unmarked) [Example 27, (pyrrolidin-2-yl)methyl 5-(2,4-difluorophenyl) salicylate hydrochloride]
Animals died/total (H1N1 virus [1]; group 2, low dose 25.0 mg/kg): 7/10
Animals with lung lesion/total (H1N1 virus [1]; group 2, low dose 25.0 mg/kg): 7/10
Animals died/total (H1N1 virus [1]; group 3, mid dose 49.9 mg/kg): 5/10
Animals with lung lesion/total (H1N1 virus [1]; group 3, mid dose 49.9 mg/kg): 5/10
Animals died/total (H1N1 virus [1]; group 4, high dose 99.8 mg/kg): 4/10
Animals with lung lesion/total (H1N1 virus [1]; group 4, high dose 99.8 mg/kg): 4/10
protection from death, lung damages and clinical signs of illness (conclusion in words) (H1N1 virus [1]): protected mice from death and lung damages, delayed and reduced the severity of clinical signs of illness

CC(C(=O)OCC1CCCN1)c1ccc(-c2ccccc2)c(F)c1.Cl (centres unmarked) [Example 15, (pyrrolidin-2-yl)methyl 2-(2-fluorobiphenyl-4-yl) propanoate hydrochloride]
Animals died/total (H1N1 virus [2]; group 2, low dose 25.0 mg/kg): 6/10
Animals with lung lesion/total (H1N1 virus [2]; group 2, low dose 25.0 mg/kg): 7/10
Animals died/total (H1N1 virus [2]; group 3, mid dose 50.0 mg/kg): 5/10
Animals with lung lesion/total (H1N1 virus [2]; group 3, mid dose 50.0 mg/kg): 5/10
Animals died/total (H1N1 virus [2]; group 4, high dose 100.0 mg/kg): 4/10
Animals with lung lesion/total (H1N1 virus [2]; group 4, high dose 100.0 mg/kg): 4/10
protection from death, lung damages and clinical signs of illness (conclusion in words) (H1N1 virus [2]): protected mice from death and lung damages, delayed and reduced the severity of clinical signs of illness

CCN(CC)CCOC(=O)c1ccccc1OC(C)=O.Cl [Example 4]
Animals died/total ([3]; group 2, low dose 25.2 mg/kg): 8/10
survival ([3]; group 2, low dose 25.2 mg/kg): 20%
Animals died/total ([3]; group 3, mid dose 50.4 mg/kg): 7/10
survival ([3]; group 3, mid dose 50.4 mg/kg): 30%
Animals died/total ([3]; group 4, high dose 100.8 mg/kg): 5/10
survival ([3]; group 4, high dose 100.8 mg/kg): 50%
protection from death and clinical signs of illness (conclusion in words) ([3]; transdermal, low, middle and high dose): protected mice from death and delayed and reduced the severity of clinical signs of illness
Animals died/total ([4]; group 2, low dose 25.2 mg/kg): 6/10
survival ([4]; group 2, low dose 25.2 mg/kg): 40%
Animals died/total ([4]; group 3, mid dose 50.4 mg/kg): 4/10
survival ([4]; group 3, mid dose 50.4 mg/kg): 60%
Animals died/total ([4]; group 4, high dose 100.8 mg/kg): 2/10
survival ([4]; group 4, high dose 100.8 mg/kg): 80%
protection from death and clinical signs of illness (conclusion in words) ([4]; transdermal, low, middle and high doses): protected mice from death and delayed and reduced the severity of clinical signs of illness

CC(C(=O)OCC1CCCN1)c1ccc(C(=O)c2cccs2)cc1.Cl (stereo not drawn) [Example 33, (pyrrolidin-2-yl)methyl α-methyl-4-(2-thienylcarbonyl)benzeneacetate hydrochloride]
Animals died/total (H1N1 virus [5]; group 5, low dose 24.9 mg/kg): 4/10
Animals with lung lesion/total (H1N1 virus [5]; group 5, low dose 24.9 mg/kg): 3/10
Animals died/total (H1N1 virus [5]; group 6, mid dose 49.8 mg/kg): 5/10
Animals with lung lesion/total (H1N1 virus [5]; group 6, mid dose 49.8 mg/kg): 3/10
Animals died/total (H1N1 virus [5]; group 7, high dose 99.6 mg/kg): 6/10
Animals with lung lesion/total (H1N1 virus [5]; group 7, high dose 99.6 mg/kg): 3/10
protection from death, lung damages and clinical signs of illness (conclusion in words) (H1N1 virus [5]): protected mice from death and lung damages, delayed and reduced the severity of clinical signs of illness

Cc1cccc(Nc2ccccc2C(=O)OCC2CCCN2)c1C.Cl (centres unmarked) [Example 17, (pyrrolidin-2-yl)methyl 2-[(2,3-dimethylphenyl)amino]benzoate hydrochloride]
Animals died/total (H1N1 virus [5]; group 2, low dose 25.0 mg/kg): 7/10
Animals with lung lesion/total (H1N1 virus [5]; group 2, low dose 25.0 mg/kg): 7/10
Animals died/total (H1N1 virus [5]; group 3, mid dose 50.1 mg/kg): 5/10
Animals with lung lesion/total (H1N1 virus [5]; group 3, mid dose 50.1 mg/kg): 5/10
Animals died/total (H1N1 virus [5]; group 4, high dose 100.1 mg/kg): 5/10
Animals with lung lesion/total (H1N1 virus [5]; group 4, high dose 100.1 mg/kg): 4/10
protection from death, lung damages and clinical signs of illness (conclusion in words) (H1N1 virus [5]): protected mice from death and lung damages, delayed and reduced the severity of clinical signs of illness

CC(=O)O.CCN(CC)CCOC(=O)CC1=C(C)/C(=C/c2ccc([S+](C)[O-])cc2)c2ccc(F)cc21 (centres unmarked) [Example 8]
Animals died/total (H1N1 virus [2]; group 5, low dose 25.5 mg/kg): 4/10
Animals with lung lesion/total (H1N1 virus [2]; group 5, low dose 25.5 mg/kg): 2/10
Animals died/total (H1N1 virus [2]; group 6, mid dose 50.9 mg/kg): 3/10
Animals with lung lesion/total (H1N1 virus [2]; group 6, mid dose 50.9 mg/kg): 2/10
Animals died/total (H1N1 virus [2]; group 7, high dose 101.9 mg/kg): 5/10
Animals with lung lesion/total (H1N1 virus [2]; group 7, high dose 101.9 mg/kg): 3/10
protection from death, lung damages and clinical signs of illness (conclusion in words) (H1N1 virus [2]): protected mice from death and lung damages, delayed and reduced the severity of clinical signs of illness

CC(=O)Oc1ccc(-c2ccc(F)cc2F)cc1C(=O)OCC1CCCN1.Cl (centres unmarked) [Example 28, (pyrrolidin-2-yl)methyl 5-(2,4-difluorophenyl) acetylsalicylate hydrochloride]
Animals died/total (H1N1 virus [1]; group 5, low dose 24.7 mg/kg): 6/10
Animals with lung lesion/total (H1N1 virus [1]; group 5, low dose 24.7 mg/kg): 4/10
Animals died/total (H1N1 virus [1]; group 6, mid dose 49.4 mg/kg): 4/10
Animals with lung lesion/total (H1N1 virus [1]; group 6, mid dose 49.4 mg/kg): 2/10
Animals died/total (H1N1 virus [1]; group 7, high dose 98.7 mg/kg): 3/10
Animals with lung lesion/total (H1N1 virus [1]; group 7, high dose 98.7 mg/kg): 1/10
protection from death, lung damages and clinical signs of illness (conclusion in words) (H1N1 virus [1]): protected mice from death and lung damages, delayed and reduced the severity of clinical signs of illness

Where two headings read alike, the source gives them in different places.
